± gives the standard deviation of the averaged measurements. The full ranking holds about 33,000 sequences; the median of “E-score (dimensionless, -0.5 to 0.5)” is about -0.046, and the highest 2% start at about 0.36. This is one part of the list.
These sequences were tested on T1, SpTbr T-box DNA-binding domain (GST fusion) (assay: PBM E-score of 8-mer (E-score (dimensionless, -0.5 to 0.5)); Tbr is Tbrain of the sea star Patiria miniata (Pm) or the sea urchin Strongylocentrotus purpuratus (Sp); higher = stronger binding preference; most listed sequences are background and not binding sites). Details: the construct has about 5 more residues each side.
T1 sequence: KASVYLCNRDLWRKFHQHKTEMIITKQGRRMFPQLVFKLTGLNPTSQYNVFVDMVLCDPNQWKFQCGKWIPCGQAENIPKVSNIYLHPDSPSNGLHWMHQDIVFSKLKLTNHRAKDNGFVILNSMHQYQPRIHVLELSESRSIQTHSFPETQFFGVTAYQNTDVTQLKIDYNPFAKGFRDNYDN
In short: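 Expression of GST-fused Tbr T-box DNA-binding domains, each holding the full T-box plus roughly five flanking residues, was carried out in BL21 E. coli at 20 °C, with purification by glutathione affinity chromatography. Universal Agilent arrays made double-stranded by primer extension were incubated with the protein at 200 nM in PBS (pH 7.5), then scanned and quantified. All ungapped 8-mers were scored from probe intensities, and each received an enrichment E-score from the Universal PBM Analysis Suite, averaged over duplicate arrays.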

| Sequence | PBM E-score of 8-mer |
| --- | --- |
| CCGTGCTA | 0.207 ± 0.026 |
| ACTCAGCC | -0.115 ± 0.013 |
| CCATAGGC | -0.129 ± 0.012 |
| ACGAGCTG | 0.0453 ± 0.016 |
| CAAGCGCA | 0.068 ± 0.0068 |
| CTTCTGAC | 0.0943 ± 0.011 |
| ACATGAAC | 0.0738 ± 0.077 |
| ATCACAGG | 0.227 ± 0.05 |
| TGCTCCAA | -0.147 ± 0.025 |
| CCACCAAC | 0.0521 ± 0.059 |
| TAAAGACA | -0.0825 ± 0.03 |
| CGCCTCTC | 0.156 ± 0.062 |
| GAATGCTC | -0.123 ± 0.047 |
| CAGGCTGA | -0.119 ± 0.0098 |
| CTCATAAC | -0.0809 ± 0.043 |
| ATGACAAT | 0.187 ± 0.063 |
| ACCGGCGT | 0.111 ± 0.011 |
| TCGCTACA | -0.0552 ± 0.054 |
| ATGAATGC | -0.0436 ± 0.072 |
| ACATAACG | 0.225 ± 0.018 |
| CCCCGTGC | -0.228 ± 0.017 |
| CCTTTATA | -0.268 ± 0.046 |

| Sequence | PBM E-score of 8-mer |
| --- | --- |
| TACGACAA | 0.0762 ± 0.058 |
| CGCGTACC | 0.151 ± 0.015 |
| ACCACTCC | 0.018 ± 0.099 |
| AGAAGATG | -0.133 ± 0.0033 |
| ACAGGTAT | 0.0728 ± 0.024 |
| GTGCGAAC | 0.4783 ± 0.00073 |
| AGCCTTTA | -0.0795 ± 0.0029 |
| ATCGCGGA | 0.151 ± 0.038 |
| CTACAGTC | -0.0644 ± 0.057 |
| AGATCCGG | -0.16 ± 0.051 |
| CCATGTTC | -0.0808 ± 0.053 |
| AAAAGAAT | -0.0109 ± 0.051 |
| GACGCGAA | 0.138 ± 0.006 |
| ACGCACGT | 0.102 ± 0.062 |
| ACGATAGA | -0.19 ± 0.054 |
| CTGCAGTA | 0.0389 ± 0.029 |
| TCTAAAAA | -0.117 ± 0.058 |
| ACCTTTTC | -0.0164 ± 0.083 |
| GTTTGACA | 0.332 ± 0.036 |
| CCCGCCGC | 0.0241 ± 0.029 |
| TGAAAGAA | -0.00098 ± 0.044 |
| AAGGGGAG | -0.0888 ± 0.0069 |

| Sequence | PBM E-score of 8-mer |
| --- | --- |
| CGGGTAGA | -0.172 ± 0.066 |
| CATCACCA | 0.165 ± 0.029 |
| ATTTGCGA | 0.203 ± 0.026 |
| CCTCCACG | 0.0268 ± 0.029 |
| ACCTCATG | 0.142 ± 0.057 |
| GCCGCAGC | -0.0981 ± 0.017 |
| GGAGAATA | -0.232 ± 0.0054 |
| CAGAAGCG | 0.078 ± 0.0059 |
| CGTGCGGC | 0.00261 ± 0.06 |
| GTTTTAAA | -0.0732 ± 0.023 |
| GCGGGTGA | 0.261 ± 0.03 |
| GTGTCCAA | 0.159 ± 0.0035 |
| GTAATTAC | 0.169 ± 0.048 |
| ACCGTAGC | -0.25 ± 0.047 |
| GATATTTA | -0.105 ± 0.06 |
| CGTCAACC | 0.135 ± 0.011 |
| TAGTTGCA | -0.212 ± 0.018 |
| CAGGGAGG | -0.103 ± 0.054 |
| CCACGACA | 0.136 ± 0.05 |
| ACGCTGGA | 0.0588 ± 0.0036 |
| CTGTTATC | 0.227 ± 0.0068 |
| CCACTACG | -0.0765 ± 0.034 |

| Sequence | PBM E-score of 8-mer |
| --- | --- |
| GGTGGGCA | 0.13 ± 0.074 |
| AAACGTCA | -0.0667 ± 0.0055 |
| ATTCGGTC | -0.0788 ± 0.015 |
| GAGACAGA | -0.213 ± 0.017 |
| CAACGCGA | 0.173 ± 0.0078 |
| ACGGACGC | 0.104 ± 0.024 |
| ACCGCGCA | 0.059 ± 0.072 |
| GTTGGCCA | -0.0151 ± 0.029 |
| GAACGAGA | -0.0174 ± 0.044 |
| CCGGCGCG | 0.199 ± 0.077 |
| TATGTAAA | -0.133 ± 0.11 |
| ATCATCAG | -0.0155 ± 0.033 |
| AGTATCAA | -0.0427 ± 0.0021 |
| CCGCTTCG | 0.136 ± 0.028 |
| CGGTTGGA | -0.0027 ± 0.0015 |
| AACAAGCA | 0.0469 ± 0.013 |
| ATTGCAGG | -0.171 ± 0.0061 |
| TTTACAAA | -0.12 ± 0.032 |
| AGATGGTG | 0.143 ± 0.0021 |
| ATTGAAAT | -0.18 ± 0.01 |

Source: the supplement of paper PMC4166925
